Assay results from paper PMC4336329 (PLoS ONE, 2015).
Out of some 310,000 compounds screened, about 14,000 (4.5%) showed an effect of 50% or more. Effects have a minus sign here. The list shows a part of the results.

Molecular target: human ether-à-go-go-related gene (hERG) potassium channel (human, UniProt Q12809)
Assay: primary screen, population patch clamp on CHO cells stably expressing hERG
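Note: peak tail current of the secondary pulse compared with the same well before compound.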

Chain of human ether-à-go-go-related gene (hERG) potassium channel (Q12809 whole entry, looked up): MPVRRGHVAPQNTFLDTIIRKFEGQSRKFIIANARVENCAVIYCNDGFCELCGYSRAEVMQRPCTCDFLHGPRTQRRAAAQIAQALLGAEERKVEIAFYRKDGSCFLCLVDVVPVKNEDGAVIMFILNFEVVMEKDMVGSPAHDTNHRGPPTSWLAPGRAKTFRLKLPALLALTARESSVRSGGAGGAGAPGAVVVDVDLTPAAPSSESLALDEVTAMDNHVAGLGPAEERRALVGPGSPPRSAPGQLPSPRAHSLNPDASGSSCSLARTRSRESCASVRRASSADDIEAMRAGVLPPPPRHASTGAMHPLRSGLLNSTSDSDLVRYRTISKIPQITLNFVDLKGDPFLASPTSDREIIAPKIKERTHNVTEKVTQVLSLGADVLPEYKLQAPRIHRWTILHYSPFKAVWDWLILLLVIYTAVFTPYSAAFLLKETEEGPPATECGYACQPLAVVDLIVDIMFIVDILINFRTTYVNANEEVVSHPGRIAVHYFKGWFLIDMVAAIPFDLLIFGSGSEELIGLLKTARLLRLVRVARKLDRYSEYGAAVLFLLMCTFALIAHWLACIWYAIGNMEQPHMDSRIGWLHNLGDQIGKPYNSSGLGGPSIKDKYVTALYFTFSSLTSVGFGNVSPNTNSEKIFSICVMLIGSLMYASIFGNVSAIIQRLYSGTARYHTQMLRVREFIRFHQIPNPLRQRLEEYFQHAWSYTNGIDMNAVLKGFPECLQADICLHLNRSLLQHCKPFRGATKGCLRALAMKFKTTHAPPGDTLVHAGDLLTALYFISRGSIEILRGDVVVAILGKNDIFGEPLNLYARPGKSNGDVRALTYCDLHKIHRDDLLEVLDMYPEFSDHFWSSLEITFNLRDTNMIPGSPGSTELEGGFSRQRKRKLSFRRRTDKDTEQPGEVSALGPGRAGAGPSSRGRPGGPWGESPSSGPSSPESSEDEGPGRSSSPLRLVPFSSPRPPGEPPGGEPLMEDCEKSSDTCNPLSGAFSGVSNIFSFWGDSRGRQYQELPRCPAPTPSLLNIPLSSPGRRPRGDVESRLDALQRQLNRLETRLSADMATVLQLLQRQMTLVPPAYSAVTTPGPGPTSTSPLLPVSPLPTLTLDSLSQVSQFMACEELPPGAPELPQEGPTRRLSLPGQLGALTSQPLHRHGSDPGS

Row | Compound | hERG current change (%, negative = inhibition) at 10uM [%]
1 | CCCOc1ccc(NC(=O)CC2C(=O)OCC3CCCCN32)cc1 (centres unmarked) | -4.12
2 | c1ccc(C(c2nnnn2C2CCCCC2)N2CCc3ccccc3C2)nc1 (centres unmarked) | -14.7
3 | CS(=O)(=O)N(CC(=O)Nc1ccc(S(=O)(=O)N2CCOCC2)cc1)c1cccc(F)c1 | -9.72
4 | Cc1ccccc1Nc1nc(N)nc(COC(=O)[C@@H](NC(=O)c2ccccc2Cl)C(C)C)n1 | -36.8
5 | CCNS(=O)(=O)c1ccc(C(=O)Nc2ccccc2)cc1 | 0.0275
6 | COc1ccc(S(=O)(=O)N2CCCC(C(=O)Nc3ccc(OC)c(OC)c3)C2)cc1 (centres unmarked) | 7.61
7 | O=C(CSc1nnc(NC(=O)c2ccco2)s1)Nc1ccc(F)cc1F | 0.396
8 | CCOc1ccc(C2NC(=O)NC(C)=C2C(=O)OC)cc1C (centres unmarked) | 0.776
9 | O=C(Nc1ccc(OC(F)(F)F)cc1)C1CC(=O)N(Cc2ccco2)C1 (centres unmarked) | -30
10 | Cc1ccc(NC(=O)CCNS(=O)(=O)c2cc(Br)cnc2N)cc1Cl | -4.41
11 | CN(C)C(=O)N1CCCC(C(=O)NCCc2ccccc2)C1 (centres unmarked) | 3.99
12 | O=C1NCCN(Cc2ccc(-c3ccccc3)cc2)C1CC(=O)N1CCN(CCO)CC1 (centres unmarked) | 32.9
13 | O=C(Nc1ccccn1)c1ccc2c(c1)OCO2 | 8.93
14 | CC1CCN(S(=O)(=O)c2ccc3[nH]c(=O)ccc3c2)CC1 | -5.5
15 | CCCCn1c(N)c(N(CC)C(=O)c2cc3c(s2)CCCCC3)c(=O)[nH]c1=O | 0.737
16 | CC1CCN(CCNC(=O)C2CCCN(S(=O)(=O)c3cccc4nonc34)C2)CC1 (centres unmarked) | -25.7
17 | CN(C)c1ncc(S(=O)(=O)c2ccccc2)c(N)n1 | 28.3
18 | O=S(=O)(NC1CCCCC1)c1ccc(S(=O)(=O)N2CCN3CCCC3C2)cc1 (centres unmarked) | -4.12
19 | COc1ccc(CN(C)CC(=O)Nc2c(C)cccc2C)c(OC)c1 | -26.1
20 | Cc1cc(O)c2c(-c3ccccc3)cc(=O)oc2c1 | -11.4
21 | N#CC(C#N)=Cc1c(N2CCN(c3ccccc3)CC2)nc2ccccn2c1=O | -7.31
22 | COc1ccccc1N(Cc1ccccc1)S(=O)(=O)c1cccc(C(=O)Nc2ccccn2)c1 | 10.5
23 | CCN(CC(=O)Nc1ccccc1C(F)(F)F)C(=O)CCSc1ccc(F)cc1 | 8.81

Row | Compound | hERG current change (%, negative = inhibition) at 10uM [%]
24 | Cc1ccc(NC(=O)Cc2nnc(N)s2)cc1 | 11.1
25 | CCc1nnc(NS(=O)(=O)c2ccc(NC(=S)NC(=O)/C=C/c3ccccc3)cc2)s1 | 13.5
26 | O=C(CSc1nnc(-c2ccc3c(c2)OCCO3)o1)NC1CCCCC1 | -3.07
27 | Cc1ccc(N2C(=O)c3cccc4c(N)ccc(c34)C2=O)c2cccnc12 | 2.79
28 | O=C(NCCc1nc2ccc(Cl)cc2[nH]1)C1CCC(=O)N(Cc2cccc(F)c2)C1 (centres unmarked) | -18.3
29 | COc1ccc(CCNC(=O)C2CCCN2C(=O)NC2CCCCC2)cc1OC (centres unmarked) | 12
30 | O=C(Nc1ccc2c(c1)OCO2)NC1CCN(Cc2ccccc2)CC1 | -24.8
31 | O=S(=O)(Nc1cccc(C(F)(F)F)c1)c1cnc[nH]1 | 15
32 | CCOC(=O)c1ccc(NC(=O)CN2C(=O)C(C)SC(C)C2=O)cc1 (centres unmarked) | 8.95
33 | Cc1nc(SCC(=O)NC(=O)NC(C)(C)C)nc(C)c1C | -8.95
34 | CC1(C)CC(=O)c2cc(C(=O)N3CCCC(C)(C)C3)c(=O)n(-c3ccccc3)c2C1 | 11.5
35 | CCCCCCN=CC1=C(O)CC(C)(C)CC1=O | 6.13
36 | CON(C)c1nc(OCCNC(=O)OCc2ccc(Cl)cc2C)nc(N(C)C)n1 | -17.8
37 | Cc1ccc(C)c(N2CCN(c3ccc4cc(S(=O)(=O)N5CCCCC5)ccc4n3)CC2)c1 | 17.1
38 | COC(CNC(=O)CN1CCN(Cc2ccccc2F)C1=O)OC | 21
39 | CC(OC(=O)c1cc[n+]([O-])cc1)C(=O)Nc1ccc(Cl)cn1 (centres unmarked) | -2.36
40 | Cc1ccc(O)c(C=Nc2cc(C)ccc2O)c1 | -8.79
41 | COc1cc2c(cc1OC)C(C(=O)NCCN1CCOCC1)C1c3ccccc3CCN1C2=O (centres unmarked) | 0.0223
42 | COc1ccccc1Cn1c(=S)[nH]c2cc(C(=O)N3CCN(c4ccccc4OC)CC3)ccc2c1=O | 15.5
43 | N#Cc1c2ccc(OCC(=O)NCc3ccco3)cc2n2ccccc12 | 14.8
44 | CCC(C)NC(=O)CN(c1cc(C)ccc1OC)S(C)(=O)=O (centres unmarked) | 9.9
45 | CN1C(C(=O)Nc2ccc(C(=O)O)cc2)=C(O)c2ccccc2S1(=O)=O | 9.97
46 | Cc1ccc(NC(=O)c2cncc(Br)c2)c(O)c1 | 8.03

Row | Compound | hERG current change (%, negative = inhibition) at 10uM [%]
47 | COc1ccc2oc(/C=C/N(C)C)c(C(=O)c3ccc(Cl)cc3)c2c1 | 4.89
48 | COc1ccc(CC(=O)NC2CCN(CC(=O)N3CCCc4ccccc43)CC2)cc1OC.Cl | -6.4
49 | COc1ccc(S(=O)(=O)N2CCC(C(=O)N3CCN(C)CC3)CC2)cc1Cl | 4.71
50 | Cc1cnc(C(=O)Nc2ccc(N3CCN(C(=O)OC(C)(C)C)CC3)cc2)cn1 | 14.1
51 | COc1ccc(CCNC(=O)c2cc(S(=O)(=O)N3CCCC3)cn2C)cc1OC | 2.46
52 | Cc1ccc(NC(=S)N2CCCCC2CO)cc1C (centres unmarked) | 6.38
53 | CC1CN2C(c3ccc([N+](=O)[O-])cc3)=CSC2=N1 (centres unmarked) | -31
54 | CC(C)C(=O)Nc1nnc(SCC(=O)NCc2cccs2)s1 | 1.65
55 | Cc1ccc(N(CC(=O)Nc2ccc3c(c2)OCCO3)S(=O)(=O)c2c(C)n[nH]c2C)cc1 | -2.86
56 | c1cc2ccc3ccc(-n4cnnn4)c4ccc(c1)c2c34 | -12.8
57 | O=C(c1cccc(F)c1)N1CCCc2ccccc21 | 9.91
58 | O=c1[nH]c(C2CCN(S(=O)(=O)c3cccc([N+](=O)[O-])c3)CC2)nc2c1nnn2Cc1ccccc1 | 14.6
59 | COC(=O)C(O)(c1c[nH]c2ccccc12)C(F)(F)F (centres unmarked) | -4.25
60 | COc1ccc2c(C)c(C)c(=O)oc2c1OC | 3.4
61 | CCCN(CC1CC1)c1nc(C)nc(Nc2c(Cl)cc(Cl)cc2Cl)c1Cl | -2.65
62 | O=C1CC(N2CCN(c3ccc(O)cc3)CC2)C(=O)N1c1ccc2c(c1)OCO2 (centres unmarked) | 0.244
63 | CCOC(=O)C1CCN(S(=O)(=O)CCNC(=O)c2ccc(F)cc2)CC1 | -35.9
64 | O=c1[nH]c(CN2CC=C(c3ccccc3)CC2)nc2scc(-c3cccs3)c12 | 17.5
65 | CC(=O)N1N=C2C3CCN(CC3)C2C1c1ccc(C)cc1 (centres unmarked) | 18.6
66 | Cc1ccc2c(CSc3nnnn3C)cc(=O)oc2c1 | -42.4
67 | CN(C)/C=C(\C#N)C(=O)Nc1ccc(F)cc1 | 2.4
68 | CC(=O)C[C@@H](O)CC(=O)[C@H]1OC(=O)CC/C=C\Cc2ccccc21 | 14.4
69 | Cl.O=C(Nc1ncccc1Cl)c1cccc(F)c1 | 2.94

Row | Compound | hERG current change (%, negative = inhibition) at 10uM [%]
70 | Cc1ccc(O)c(NC(=S)NC(=O)/C=C/c2ccco2)c1 | -4.5
71 | COc1ccc(C2C(C#N)=C(N)Oc3c2c(=O)oc2ccccc32)cc1Cn1cc([N+](=O)[O-])cn1 (centres unmarked) | -4.41
72 | COc1cccc(Nc2nc(-c3ccc(O)cc3)cs2)c1 | 13.1
73 | O=C(Cc1cc(=O)[nH][nH]1)N/N=C/C(Cl)=C/c1ccccc1 | 4.46
74 | Cc1ccc(NC(=S)N2CCC(NC(=O)c3ccc(C)cc3)CC2)cc1 | 4.09
75 | C/C(=N/NC(=O)CNC(=O)c1cccc(F)c1)c1ccc2c(c1)CCCC2 | 12.4
76 | CCOC(=O)c1c(C=O)c(C)n(Cc2ccc(Cl)cc2)c1C | -18.8
77 | O=C(CCSc1ccccc1)Nc1ccc(S(=O)(=O)Nc2ncccn2)cc1 | 17.3
78 | CC(NC(=O)C(Cc1ccccc1)n1cccc1)c1ccccc1 (centres unmarked) | 3.04
79 | Cc1cc(NC(=O)NC(=O)c2ccccc2)no1 | 23.1
80 | O=C(OCC(=O)c1ccccc1Cl)c1cnccn1 | -0.611
81 | O=C(O)CSC(=S)N1CC2CC(C1)c1cccc(=O)n1C2 (centres unmarked) | 13.2
82 | CCOc1ccc(CN2CCN(CC3CC3)CC2CCO)cc1 (centres unmarked) | -67.1
83 | COCCSc1ccccc1C(=O)Nc1nnc(COC)s1 | -2.63
84 | Cc1cn(C(=O)c2cccc(Br)c2)c(C)n1 | 15
85 | COCCNC(=O)CSc1nc2ccccc2c(=O)n1CCC(=O)N1CCN(c2ccccc2)CC1 | -35
86 | COc1ccc(C(=O)c2sc(Nc3ccc(NC(C)=O)cc3)nc2C)cc1 | 9.79
87 | CC(=O)Nc1cccc(OCc2ccc(F)cc2)c1 | -12
88 | CN(C)CCNc1oc(/C=C/c2ccccc2)nc1C#N | -29.2
89 | Cc1ccsc1C1Nc2ccccc2-c2nc3ccccc3n21 (centres unmarked) | 0.903
